# Laboratory results: the supplement of paper PMC12645437, “Orthogonal IMiD-Degron Pairs Induce Selective Protein Degradation in Cells” (ACS Chemical Biology, 2025)
# Some of the results follow.
# B1: Q9UKT9 (peptide)
# chain: FICPICGATFTQKGNLLRHIKL
# B2: Q9UKT9 (peptide)
# chain: FWCPICGHNFTQKGNLLRHIKL
# B3: Q9UKT9 (peptide)
# chain: FKCEICGRLFTQKGNLLRHIKL
# B4: Q9UKT9 (peptide)
# chain: FFCEICGAAFTQKGNLLRHIKL
# B5: Q9UKT9 (peptide)
# chain: FECPICGHPFTQKGNLLRHIKL
# B6: Q9UKT9 (peptide)
# chain: FICSVCGHFFTQKGNLLRHIKL
# B7: Q9UKT9 (peptide)
# chain: FTCDVCGAPFTQKGNLLRHIKL
# B8: Q9UKT9 (peptide)
# chain: FECEICGHSFTQKGNLLRHIKL
# B9: Q9UKT9 (peptide)
# chain: FLCNQCGHNFTQKGNLLRHIKL
# B10: Q9UKT9 (peptide)
# chain: FTCNQCGHNFTQKGNLLRHIKL
# B11: Q9UKT9 (peptide)
# chain: LTCNQCGFNCTQKGNLLRHIKL
# B12: Q9UKT9 (peptide)
# chain: LGCNQCGFHCTQKGNLLRHIKL
# B13: Q9UKT9 (peptide)
# chain: FTCNICGAIFTQKGNLLRHIKL
# B14: Q9UKT9 (peptide)
# chain: FECNQCGAGFTQKGNLLRHIKL
# B15: Q9UKT9 (peptide)
# chain: LCCNQCGFNCTQKGNLLRHIKL
# B16: Q9UKT9 (peptide)
# chain: FQCEICGRFFTQKGNLLRHIKL
# B17: Q9UKT9 (peptide)
# chain: FECNQCGAQFTQKGNLLRHIKL
# B18: Q9UKT9 (peptide)
# chain: FSCPICGHQFTQKGNLLRHIKL
# B19: Q9UKT9 (peptide)
# chain: FLCDVCGALFTQKGNLLRHIKL
# B20: Q9UKT9 (peptide)
# chain: FFCDQCGANFTQKGNLLRHIKL
# B21: Q9UKT9 (peptide)
# chain: FVCPICGACFTQKGNLLRHIKL
# B22: Q9UKT9 (peptide)
# chain: FSCPQCGAIFTQKGNLLRHIKL
# B23: Q9UKT9 (peptide)
# chain: FWCDVCGAKFTQKGNLLRHIKL
# B24: Q9UKT9 (peptide)
# chain: FSCNQCGAYFTQKGNLLRHIKL
# B25: Q9UKT9 (peptide)
# chain: FDCNICGAEFTQKGNLLRHIKL
# B26: Q9UKT9 (peptide)
# chain: FMCPQCGAVFTQKGNLLRHIKL
# B27: Q9UKT9 (peptide)
# chain: FNCEICGRRFTQKGNLLRHIKL
# B28: Q9UKT9 (peptide)
# chain: FCCEICGALFTQKGNLLRHIKL
# B29: Q9UKT9 (peptide)
# chain: LKCNQCGFPCTQKGNLLRHIKL
# B30: Q9UKT9 (peptide)
# chain: FECEICGAIFTQKGNLLRHIKL
# B31: Q9UKT9 (peptide)
# chain: FVCEVCGAAFTQKGNLLRHIKL
# B32: Q9UKT9 (peptide)
# chain: FSCNICGAWFTQKGNLLRHIKL
# Target: no compound (DMSO)
# Test: log2 fold change of degron read counts, EGFP-low vs EGFP+ sorted cells; higher = lower degron-EGFP level without compound (poor expression or instability)
# Settings: compound: DMSO control; 18 h
# 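Further: jurkat cells carrying a lentiviral library of mutant zinc finger degrons fused to EGFP plus mCherry, mCherry+ cells FACS sorted, degron abundance counted by next-generation sequencing.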
row,Sequence,log2 fold change of degron read counts
1,B1,-0.412
2,B2,0.643
3,B3,-1.2
4,B4,-1.69
5,B5,-0.455
6,B6,0.802
7,B7,-0.574
8,B8,-1.97
9,B9,0.269
10,B10,-0.918
11,B11,0.353
12,B12,1.54
13,B13,0.158
14,B14,-1.63
15,B15,0.576
16,B16,-0.941

row,Sequence,log2 fold change of degron read counts
1,B17,-2.49
2,B18,0.0344
3,B19,-0.867
4,B20,-2.7
5,B21,0.0248
6,B22,-0.545
7,B23,-0.519
8,B24,0.729
9,B25,-1.45
10,B26,-0.29
11,B27,-0.899
12,B28,-1.3
13,B29,0.785
14,B30,-1.21
15,B31,-1.59
16,B32,-0.0526
